# Experimental data from the supplement of paper PMC8728848.
# This is one part of the list.
# B1: Nc3LysM (protein)
# chain: QFTVPPDTTAEPNTIKTCTWWHVAGSGDSCTSIASTYGITSEQFARWDMETTDSPKNPSVATACKLTVGNSYCIENNFGQDDPPTPSISSSTLIGTATTSTTASTTTGNGISTPTPIQEGMETATTTTSSGNGITTPTPTQAGMETVGNCDRFHLVKSGDQCGTIASTYGITLANFYSWNPAVGTSCQSLWLDTYVCVRTIGFVPPKTTTTTTKKPTSTTSAGGVATPTPTQPGMETVSGCKKFHKGRGNVSTVASGDQCGTIATRYGISLANFYSWNPAVGSSCQTLWLDYYVCVGR
# Experiments:
# Assay in all cases: glycan array binding signal (z-score within array); higher = stronger binding
# Conditions in all cases: glycan notation: IUPAC condensed, linker removed
# [1] = target: Neu5Ac(a2-3)Gal(b1-3)GalNAc
# Method in brief: (§1)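 Arrays were curated from the Consortium for Functional Glycomics database, 3228 in total, and kept only where the protein sequence was available. Binding is expressed as a within-array Z-score. This score was averaged across arrays of the same protein sequence at different concentrations or buffers and across linkers, and negative values can be read as non-binding.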
# [2] = target: Neu5Ac(a2-3)Gal(b1-3)GalNAc(b1-3)Gal(a1-4)Gal(b1-4)Glc
# Method in brief: as §1
# [3] = target: Neu5Ac(a2-3)Gal(b1-3)GalNAc(b1-4)Gal(b1-4)Glc
# Method in brief: as §1
# [4] = target: Neu5Ac(a2-3)Gal(b1-3)GalNAc(b1-4)[Neu5Ac(a2-3)]Gal(b1-4)Glc
# Method in brief: as §1
# [5] = target: Neu5Ac(a2-3)Gal(b1-3)GalNAc(b1-4)[Neu5Ac(a2-8)Neu5Ac(a2-3)]Gal(b1-4)Glc
# Method in brief: as §1
# [6] = target: Neu5Ac(a2-3)Gal(b1-3)GalNAc6S
# Method in brief: as §1
# [7] = target: Neu5Ac(a2-3)Gal(b1-3)GlcNAc
# Method in brief: as §1
# [8] = target: Neu5Ac(a2-3)Gal(b1-3)GlcNAc(b1-2)Man
# Method in brief: as §1
# [9] = target: Neu5Ac(a2-3)Gal(b1-3)GlcNAc(b1-2)Man(a1-3)[GlcNAc(b1-4)][Neu5Ac(a2-3)Gal(b1-3)GlcNAc(b1-2)Man(a1-6)]Man(b1-4)GlcNAc(b1-4)GlcNAc
# Method in brief: as §1
# [10] = target: Neu5Ac(a2-3)Gal(b1-3)GlcNAc(b1-2)Man(a1-3)[Neu5Ac(a2-3)Gal(b1-3)GlcNAc(b1-2)Man(a1-6)]Man(b1-4)GlcNAc(b1-4)GlcNAc
# Method in brief: as §1
# [11] = target: Neu5Ac(a2-3)Gal(b1-3)GlcNAc(b1-2)[Neu5Ac(a2-3)Gal(b1-3)GlcNAc(b1-4)]Man(a1-6)[Neu5Ac(a2-3)Gal(b1-3)GlcNAc(b1-2)Man(a1-3)]Man(b1-4)GlcNAc(b1-4)GlcNAc
# Method in brief: as §1
# [12] = target: Neu5Ac(a2-3)Gal(b1-3)GlcNAc(b1-3)Gal(b1-3)GlcNAc
# Method in brief: as §1
# [13] = target: Neu5Ac(a2-3)Gal(b1-3)GlcNAc(b1-3)Gal(b1-4)GlcNAc
# Method in brief: as §1
# [14] = target: Neu5Ac(a2-3)Gal(b1-3)GlcNAc(b1-3)GalNAc
# Method in brief: as §1
# [15] = target: Neu5Ac(a2-3)Gal(b1-3)GlcNAc(b1-6)GalNAc
# Method in brief: as §1
# [16] = target: Neu5Ac(a2-3)Gal(b1-3)GlcNAc6S
# Method in brief: as §1
# [17] = target: Neu5Ac(a2-3)Gal(b1-3)[Fuc(a1-4)]GlcNAc
# Method in brief: as §1
# [18] = target: Neu5Ac(a2-3)Gal(b1-3)[Fuc(a1-4)]GlcNAc(b1-3)Gal(b1-3)[Fuc(a1-4)]GlcNAc
# Method in brief: as §1
# [19] = target: Neu5Ac(a2-3)Gal(b1-3)[Fuc(a1-4)]GlcNAc(b1-3)Gal(b1-4)[Fuc(a1-3)]GlcNAc
# Method in brief: as §1
# [20] = target: Neu5Ac(a2-3)Gal(b1-3)[GlcNAc(b1-6)]GalNAc
# Method in brief: as §1
# [21] = target: Neu5Ac(a2-3)Gal(b1-3)[Neu5Ac(a2-6)]GalNAc
# Method in brief: as §1
# [22] = target: Neu5Ac(a2-3)Gal(b1-3)[Neu5Ac(a2-6)]GlcNAc(b1-3)[Fuc(a1-3)[Gal(b1-4)]GlcNAc(b1-6)]Gal(b1-4)Glc
# Method in brief: as §1
# [23] = target: Neu5Ac(a2-3)Gal(b1-3)]Neu5Ac(a2-3)Gal(b1-4)]GlcNAc
# Method in brief: as §1
# [24] = target: Neu5Ac(a2-3)Gal(b1-4)Glc
# Method in brief: as §1
# [25] = target: Neu5Ac(a2-3)Gal(b1-4)GlcNAc
# Method in brief: as §1
# [26] = target: Neu5Ac(a2-3)Gal(b1-4)GlcNAc(b1-2)Man
# Method in brief: as §1
# [27] = target: Neu5Ac(a2-3)Gal(b1-4)GlcNAc(b1-2)Man(a1-3)[GlcNAc(b1-4)][Neu5Ac(a2-3)Gal(b1-4)GlcNAc(b1-2)Man(a1-6)]Man(b1-4)GlcNAc(b1-4)GlcNAc
# Method in brief: as §1
# [28] = target: Neu5Ac(a2-3)Gal(b1-4)GlcNAc(b1-2)Man(a1-3)[Neu5Ac(a2-3)Gal(b1-4)GlcNAc(b1-2)Man(a1-6)]Man(b1-4)GlcNAc(b1-4)GlcNAc
# Method in brief: as §1
# [29] = target: Neu5Ac(a2-3)Gal(b1-4)GlcNAc(b1-2)Man(a1-3)[Neu5Ac(a2-3)Gal(b1-4)GlcNAc(b1-2)Man(a1-6)]Man(b1-4)GlcNAc(b1-4)[Fuc(a1-6)]GlcNAc
# Method in brief: as §1
# [30] = target: Neu5Ac(a2-3)Gal(b1-4)GlcNAc(b1-2)Man(a1-3)[Neu5Ac(a2-6)Gal(b1-4)GlcNAc(b1-2)Man(a1-6)]Man(b1-4)GlcNAc(b1-4)GlcNAc
# Method in brief: as §1
# [31] = target: Neu5Ac(a2-3)Gal(b1-4)GlcNAc(b1-2)[Neu5Ac(a2-3)Gal(b1-4)GlcNAc(b1-4)]Man(a1-3)[GlcNAc(b1-4)][Neu5Ac(a2-3)Gal(b1-4)GlcNAc(b1-2)[Neu5Ac(a2-3)Gal(b1-4)GlcNAc(b1-6)]Man(a1-6)]Man(b1-4)GlcNAc(b1-4)GlcNAc
# Method in brief: as §1
# [32] = target: Neu5Ac(a2-3)Gal(b1-4)GlcNAc(b1-2)[Neu5Ac(a2-3)Gal(b1-4)GlcNAc(b1-4)]Man(a1-3)[GlcNAc(b1-4)][Neu5Ac(a2-3)Gal(b1-4)GlcNAc(b1-4)Man(a1-6)]Man(b1-4)GlcNAc(b1-4)GlcNAc
# Method in brief: as §1
# [33] = target: Neu5Ac(a2-3)Gal(b1-4)GlcNAc(b1-2)[Neu5Ac(a2-3)Gal(b1-4)GlcNAc(b1-6)]Man(a1-6)[Neu5Ac(a2-3)Gal(b1-4)GlcNAc(b1-2)Man(a1-3)][GlcNAc(b1-4)]Man(b1-4)GlcNAc(b1-4)GlcNAc
# Method in brief: as §1
# [34] = target: Neu5Ac(a2-3)Gal(b1-4)GlcNAc(b1-3)Gal
# Method in brief: as §1
# [35] = target: Neu5Ac(a2-3)Gal(b1-4)GlcNAc(b1-3)Gal(b1-3)GlcNAc
# Method in brief: as §1
# [36] = target: Neu5Ac(a2-3)Gal(b1-4)GlcNAc(b1-3)Gal(b1-4)GlcNAc
# Method in brief: as §1
# [37] = target: Neu5Ac(a2-3)Gal(b1-4)GlcNAc(b1-3)Gal(b1-4)GlcNAc(b1-2)Man(a1-3)[Neu5Ac(a2-3)Gal(b1-4)GlcNAc(b1-3)Gal(b1-4)GlcNAc(b1-2)Man(a1-6)]Man(b1-4)GlcNAc(b1-4)GlcNAc
# Method in brief: as §1
binder,measurement,setting,value
B1,glycan array binding signal (z-score),[1],0.041
same,glycan array binding signal (z-score),[2],-0.181
same,glycan array binding signal (z-score),[3],0.03
same,glycan array binding signal (z-score),[4],-0.117
same,glycan array binding signal (z-score),[5],-0.085
same,glycan array binding signal (z-score),[6],-0.078
same,glycan array binding signal (z-score),[7],0.132
same,glycan array binding signal (z-score),[8],-0.137
same,glycan array binding signal (z-score),[9],-0.143
same,glycan array binding signal (z-score),[10],-0.043
same,glycan array binding signal (z-score),[11],0.123
same,glycan array binding signal (z-score),[12],-0.066
same,glycan array binding signal (z-score),[13],0.037
same,glycan array binding signal (z-score),[14],-0.074
same,glycan array binding signal (z-score),[15],-0.193
same,glycan array binding signal (z-score),[16],-0.268
same,glycan array binding signal (z-score),[17],-0.183
same,glycan array binding signal (z-score),[18],-0.02
same,glycan array binding signal (z-score),[19],-0.278
same,glycan array binding signal (z-score),[20],-0.207
same,glycan array binding signal (z-score),[21],0.003
same,glycan array binding signal (z-score),[22],-0.004
same,glycan array binding signal (z-score),[23],-0.035
same,glycan array binding signal (z-score),[24],0.196
same,glycan array binding signal (z-score),[25],-0.073
same,glycan array binding signal (z-score),[26],-0.147
same,glycan array binding signal (z-score),[27],0.002
same,glycan array binding signal (z-score),[28],-0.039
same,glycan array binding signal (z-score),[29],-0.216
same,glycan array binding signal (z-score),[30],-0.026
same,glycan array binding signal (z-score),[31],-0.3
same,glycan array binding signal (z-score),[32],-0.276
same,glycan array binding signal (z-score),[33],-0.026
same,glycan array binding signal (z-score),[34],-0.167
same,glycan array binding signal (z-score),[35],-0.112
same,glycan array binding signal (z-score),[36],-0.19
same,glycan array binding signal (z-score),[37],0.059
